GI50 and TGI data for four compounds are collected here from PubChem BioAssay (NCI).

Among the test systems are EKVX NSCLC; HCC-2998 colon; MDA-MB-231 breast; NCI-H226 lung; SNB-75 CNS; 786-0 renal; A549 NSCLC; ACHN renal; COLO 205 colon; HCT-15 colon; HL-60(TB) leukemia; HOP-62 NSCLC; HT29 colon; IGROV1 ovarian; KM12 colon; LOX IMVI melanoma; MALME-3M melanoma; MOLT-4 leukemia; NCI-H23 lung; NCI-H460 lung; NCI-H522 lung; OVCAR-3 ovarian; OVCAR-4 ovarian; OVCAR-8 ovarian; SF-268 CNS; SF-295 CNS; SF-539 CNS; SK-MEL-5 melanoma; SN12C renal; U251 CNS; UACC-62 melanoma; CAKI-1 renal; CCRF-CEM leukemia; DLD-1 colon; DMS 114 small cell lung; HCT-116 colon; K-562 leukemia; LXFL 529 NSCLC; M14 melanoma; M19-MEL melanoma; RPMI-8226 leukemia; SK-MEL-2 melanoma; SK-OV-3 ovarian; SNB-19 CNS; SR leukemia; SW-620 colon; TK-10 renal; UO-31 renal; XF 498 CNS.

Common to all, as to test: NCI-60 cell line screen, 48 h

Each structure is given as a SMILES string.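 How tested: cells in 96-well plates exposed to compound for 48 hours at five concentrations. GI50 is the concentration that inhibits growth by half.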 Certain results were filed several times, with different values. This list holds those alone. There may be further records. For some of these results: A record mostly stands for its own series of concentrations, which the source does not state; a value can be the end of its range. For some of these results: Values that stand side by side are repeats across runs, samples, wells, individuals or studies. Records carry a tag for their origin. Letters count within one entry.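 Definition used: TGI = concentration required for complete inhibition of growth.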

Take `C[C@@H](Oc1cc(-n2cnc3ccc(CN4CCN(C)CC4)cc32)sc1C(N)=O)c1ccccc1C(F)(F)F`: the GI50 in the assay with EKVX NSCLC is 2.77 µM [sample A, 1 test] and 62.4 nM [sample B, mean of 2 tests]; in the assay with MDA-MB-231 breast it was 166 nM [sample A, mean of 2 tests] and 15.1 nM [sample B, mean of 2 tests]; in the assay with NCI-H226 lung it was 71.4 nM [sample A, mean of 2 tests] and 3.18 µM [sample B, 1 test]. Besides, the TGI is 380 nM [sample A, mean of 2 tests] and > 10 µM [sample B, mean of 2 tests] in the assay on HCC-2998 colon; 13.3 µM [sample A, 1 test] and 313 nM [sample B, 1 test] in the assay with SNB-75 CNS.
As for `CCCCCCCCCCCCCC(=O)OC(/C=C/C(C)C)C(O)C(O)C(OC)C(=O)NC1CCCCN(C)C1=O` (stereo not drawn), the GI50 in the assay on 786-0 renal was 1.49 µM and > 49 µM; in the assay with A549 NSCLC it was 860 nM and > 49 µM; with ACHN renal, 912 nM and > 49 µM; in the assay with COLO 205 colon it was 992 nM and > 49 µM; in the assay on HCC-2998 colon, 1.15 µM and > 49 µM; with HCT-15 colon it was 1.32 µM and > 49 µM. Also, the GI50 was 3.78 µM and > 49 µM in the assay with HL-60(TB) leukemia; 1.87 µM and > 49 µM with HOP-62 NSCLC; 3.25 µM and > 49 µM with HT29 colon; 1.01 µM and > 49 µM with IGROV1 ovarian; 2.95 µM and > 49 µM in the assay with KM12 colon; 1.32 µM and > 49 µM in the assay on LOX IMVI melanoma. The GI50 is 3.77 µM and > 49 µM in the assay with MALME-3M melanoma; 1.78 µM and > 49 µM in the assay on MOLT-4 leukemia; 991 nM and > 49 µM in the assay on NCI-H226 lung; 2.25 µM and > 49 µM with NCI-H23 lung; 567 nM and > 49 µM with NCI-H460 lung; 2.54 µM and > 49 µM with NCI-H522 lung. Moreover, the GI50 in the assay on OVCAR-3 ovarian is 3.97 µM and > 49 µM; in the assay with OVCAR-4 ovarian it was 3.35 µM and > 49 µM; in the assay on OVCAR-8 ovarian it was 2.68 µM and > 49 µM; in the assay with SF-268 CNS, 3.75 µM and > 49 µM; with SF-295 CNS it was 1.69 µM and > 49 µM; with SF-539 CNS it was 2.64 µM and > 49 µM. Further, the GI50 in the assay with SK-MEL-5 melanoma is 1.46 µM and > 49 µM; in the assay with SN12C renal it was 1.01 µM and > 49 µM; in the assay on SNB-75 CNS, 1.09 µM and > 49 µM; with U251 CNS, 2.23 µM and > 49 µM; with UACC-62 melanoma, 1.78 µM and > 49 µM. Also, the TGI was 8.93 µM, 4.22 µM, > 49 µM in the assay on COLO 205 colon; 4.44 µM and > 49 µM with NCI-H226 lung; 4.78 µM and > 49 µM with SN12C renal.
As to `O=C(NC(=O)c1ccccc1[N+](=O)[O-])Nc1ccc(Oc2ncc(Br)cn2)c(Cl)c1`, the TGI in the assay with 786-0 renal was 64.1 nM and > 100 µM; in the assay on CAKI-1 renal it was 69.3 nM and > 100 µM; with CCRF-CEM leukemia it was 67.1 nM and > 100 µM; in the assay with DLD-1 colon it was 52 nM and > 100 µM; in the assay on DMS 114 small cell lung it was 15.5 nM and 2.54 µM; with EKVX NSCLC, 72.9 nM and > 100 µM. For the same compound, the TGI in the assay on HCT-116 colon was 66.5 nM and > 27.2 µM; in the assay with HOP-62 NSCLC it was 72.3 nM and > 100 µM; in the assay with IGROV1 ovarian it was 47.4 nM and > 100 µM; in the assay with K-562 leukemia it was 67.7 nM and > 100 µM; in the assay on KM12 colon it was 70.6 nM and > 20.2 µM; in the assay on LXFL 529 NSCLC it was 51.7 nM and > 100 µM. Moreover, the TGI in the assay on M14 melanoma is 47.6 nM and > 100 µM; in the assay on M19-MEL melanoma it was 50.8 nM and > 100 µM; with MOLT-4 leukemia, 55.4 nM and > 92 µM; with NCI-H23 lung it was 95 nM and > 100 µM; in the assay with NCI-H460 lung, 71.5 nM and > 56.5 µM; in the assay with OVCAR-4 ovarian, 58.9 nM and > 100 µM. The TGI with RPMI-8226 leukemia was 68.8 nM and > 100 µM; with SF-268 CNS it was 74.1 nM and > 100 µM; with SK-MEL-2 melanoma, 36.7 nM and > 100 µM; in the assay with SK-MEL-5 melanoma, 78.7 nM and > 100 µM; in the assay with SK-OV-3 ovarian, 68.7 nM and > 91.8 µM; with SN12C renal, 70.8 nM and > 100 µM. Besides, the TGI in the assay on SNB-19 CNS was 71.8 nM and > 100 µM; with SNB-75 CNS, 56 nM and > 100 µM; with SR leukemia it was 68.9 nM and > 100 µM; with SW-620 colon it was 68.7 nM and > 100 µM; with TK-10 renal, 73.7 nM and > 100 µM; in the assay on UACC-62 melanoma it was 61.2 nM and > 100 µM. Besides, the TGI in the assay on UO-31 renal was 63.9 nM and > 100 µM; with XF 498 CNS, 17.7 nM and > 85.2 µM.
As to `O=C(CCN1CCCCC1)C(=Cc1ccccc1)C(=O)CCN1CCCCC1`, the TGI is 7.34 µM and > 100 µM with DMS 114 small cell lung; 9.33 µM and > 100 µM with HCT-15 colon; 2.52 µM and 28.6 µM in the assay on NCI-H522 lung; 3.59 µM and > 69.5 µM with SW-620 colon.
